PubChem BioAssay AID1508624 (National Center for Advancing Translational Sciences (NCATS), 2021)
The campaign covered roughly 48,000 compounds. About 120 (0.25%) were called active. About 4% were inconclusive and are not listed. Calls come from the whole dose curve; as a rule, active = well fitted activation curve with a large enough effect; inconclusive = small, poorly fitted or top-dose-only effect, or another doubt; inactive = no such curve, though single readings can be large or run the other way. The list shows a part of the results.

assay: Primary qHTS for Identification of Small Molecule Activators of Huntingtin-Antisense Promoter Activity; settings: HEK293 HTT-AS promoter firefly luciferase reporter (activity 0% = vehicle and -100% = no light), 24 h; series mostly up to 57.5 µM; activity change, positive = activation: at the top concentration; note: nearly all actives have a fitted effect of over 55% in size
How it was run: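 Firefly luciferase signal from promoter-reporter HEK293 cells was scaled between vehicle (0%) and zero RLU (-100%). Compounds were tested at final concentrations of up to 57.5 uM over 24 h at 37 degrees C. PTC124 at 50 uM final served as control inhibitor.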

Activity change, positive = activation, inactive:
Cc1cc(-n2c(C)nc3ccccc3c2=O)ccc1NC(=O)c1ccccc1[N+](=O)[O-] -4.06%, O=C(NCc1ccccc1F)c1ccc(CSc2nc3cccnc3n2Cc2ccccc2)cc1 -21.5%, Cc1nn2c(=O)cc(COC(=O)c3ccccc3NC(=O)COc3ccccc3C)nc2s1 -6.36%, Cc1ccc(SCc2nc(-c3ccc(C(=O)NCCc4ccc(Cl)cc4)cc3)oc2C)cc1 3.67%, CCN(CC)CCOc1ccc(Cc2ccccc2)cc1, COc1ccc(OC)c(NC(=O)[C@H](CSCc2ccccc2)N2Cc3ccccc3C2=O)c1 -25.5%, CCOC(=O)c1cc(OC(=O)c2ccccc2Cl)n(-c2ccccc2)n1 -24.3%, COC(=O)c1cc2sc(Cl)cc2n1CC(=O)Nc1cc(C)cc(C)c1 12.8%, Cc1ccc(CNC(=O)Cn2c(=O)n(-c3ccc(C)cc3)c(=O)c3c2c2cc(C)ccc2n3C)cc1 -0.207%, COC(=O)c1cc2occc2n1CC(=O)Nc1ccc(N(C)C)cc1 21%, COC(=O)c1c(N)n(-c2ccc(OC)c(OC)c2)c2nc3ccccc3nc12 -6.18%, N#Cc1nc(-c2ccc(COc3ccccc3)o2)oc1N1CCCCC1 -18.9%, Cc1ccc(CNC(=O)C(=O)NCC(c2ccco2)S(=O)(=O)c2ccccc2)cc1 (configuration not stated) 15.5%, Cc1ccccc1NC(=O)Cn1c(=O)n(Cc2ccccc2)c(=O)c2c(C)c(C)sc21 12.2%, CCc1ccc(NC(=O)C2CCN(c3ccc(Sc4ccc(C)cc4)nn3)CC2)cc1 -3.72%, COc1ccc(CCNC(=O)Cn2c(=O)cc(C(F)(F)F)c3c(C)nn(C)c32)c(OC)c1 -7.62%, CCOc1cc(CNC(=O)c2cc(-c3ccc(Cl)s3)nc3ccccc23)ccc1OC -5.37%, Cc1ccc(N2CCN(S(=O)(=O)c3nnc(NC(=O)c4cccc(F)c4)s3)CC2)cc1 -18.3%, CCCCCCCCCCCCCCCCCCN(C)C -11.4%, O=C(Cn1cccc1C(=O)c1ccccc1)NCc1ccc(Cl)cc1 9.97%, COc1ccc(NC(=O)CNC(=O)Cn2ccc3ccccc3c2=O)c(OC)c1 -17.4%, CCCN1CCN(CCCNC(=O)c2cc3c(=O)[nH]c4ccccc4c3s2)CC1 -14.6%, O=C(CCSCCc1ccccn1)Nc1ccccc1C(F)(F)F -12.7%, CCc1ccccc1NC(=O)Cn1cc(C(=O)c2ccncc2)c(=O)c2cc(C)ccc21 10.9%, COc1ccc(CCNC(=O)c2cc(-c3ccc(C)cc3)nc3n[nH]c(-c4ccc(F)cc4)c23)cc1OC 0%, Cc1ccc(-n2ncc3c(NCCc4ccccc4)ncnc32)cc1Cl 4%, O=C(COCc1cc(-c2ccc(F)cc2)on1)Nc1cc(Cl)cc(Cl)c1 -17.2%, Cc1ccc(N2CC(C(=O)NCCS(=O)(=O)N3CCN(c4ccc(F)cc4)CC3)CC2=O)cc1 (configuration not stated) -6.12%, O=C(CCSCc1cccc(F)c1)NCCc1ccccc1 -10.4%, COCCCNc1oc(-c2ccc(COc3ccccc3C)o2)nc1C#N -21%, COc1cc(OC)c(NC(=O)Cn2c(=O)nc(-c3ccccc3)c3ccccc32)cc1Cl -24.4%, CC1=C(C(=O)Nc2cccc(F)c2)C2(CCCCCC2)OC1=O -28.4%, COc1cccc(Cn2c(=O)n(-c3cc(C)cc(C)c3)c(=O)c3oc4ccccc4c32)c1 -28.3%, Cc1ccc2c(=O)c(C(=O)c3cccc(Cl)c3)cn(CC(=O)NCc3ccccc3)c2n1 -13.6%, CCC(CC)C(=O)Nc1cccc(-c2cn3cccnc3n2)c1 4.97%, Cc1c(Cl)cccc1-c1ccc(C(=O)Nc2ccc3oc(-c4cccnc4)nc3c2)o1 -17.8%, CCC1=Nc2cc(C(=O)NC3CCCC3)ccc2Sc2ccc(Cl)cc21 -46%, COc1cc(CNCCSc2nnnn2C)ccc1OCc1ccccc1 -0.863%, C[C@@H]1[C@H](C)CC[C@]2(C(=O)O)CC[C@]3(C)C(=CC[C@@H]4[C@@]5(C)C[C@@H](O)[C@H](O)[C@@](C)(CO)[C@H]5CC[C@]43C)[C@@H]12 -10.3%, Cc1ccc2nc3sc(C(=O)Nc4ccc(F)cc4)cc3cc2c1 18.4%, CCOC(=O)c1cc(S(=O)(=O)N2CCN(c3cccc(C)c3)C(C)C2)[nH]n1 (configuration not stated) -15.4%, COc1ccc(N2CCN(C(=O)c3c(C)oc4ncn(CC(C)C)c(=O)c34)CC2)cc1 3.12%, COC(=O)c1ccc(NC(=O)C(C)N2Cc3ccccc3C2=O)cc1 (configuration not stated) -4.5%, Cc1ccc(CNC(=O)c2cnc(N3CCCC3)nc2C)cc1 -7.56%, CC(C)C[C@@H](C=O)NC(=O)[C@H](CC(C)C)NC(=O)[C@H](CC(C)C)NC(=O)OCc1ccccc1 -75.4%, CN(C(=O)CSc1nc2ccc(NC(=O)c3ccco3)cc2s1)c1ccccc1 -32.8%, CCc1ccccc1NC(=O)c1nnn(CC(=O)Nc2c(C)cc(C)cc2C)c1N -9.2%, Cc1cc(C)c2c(NC(=O)c3ccccc3Cl)c(C(=O)Nc3ccc(C)c(C)c3)sc2n1 17.1%, CCOc1ccc(CCNc2ncnc3onc(C)c23)cc1OCC -53%, COc1ccc(CCNC(=O)CCCCn2c(=O)c3ccccc3n(Cc3cccc(C)c3)c2=O)cc1OC -39.5%, CCOC(=O)c1cnc2c(OC)cccc2c1N1CCN(c2ccccc2F)CC1 -43.3%, COc1ccc(C(=O)Nc2ccc3c(c2)CCCN3S(=O)(=O)c2ccc(C)cc2)cc1 21%, CCCCN(CCCC)CCn1cnc2c([nH]c3ccc(OC)cc32)c1=O -26.5%, COc1ccc(NC(=O)c2oc3ccccc3c2NC(=O)c2cc(=O)c3ccccc3o2)cc1 20.9%, COc1ccc(CNC(=O)c2ccc(-c3nc(CSc4ccccc4)c(C)o3)cc2)cc1 -21.2%, N[C@H]1C(O)O[C@H](CO)[C@@H](O)[C@@H]1O (some centres not stated) -0.548%, CCn1cc(C(=O)N2CCN(c3ccccc3OC)CC2)c2cc(OC)c(OC)cc2c1=O -11.9%, CCC(Oc1ccccc1)C(=O)Nc1nnc(S(=O)(=O)N2CCCC2)s1 (configuration not stated) -8.2%, CCc1ccc(OCC(=O)Nc2c(C(=O)c3ccc(Br)cc3)oc3ccccc23)cc1 -8.69%, OC[C@H]1O[C@@H](n2cnc3c2NC=NC[C@@H]3O)C[C@H]1O -21.1%, CCOc1cccc2sc(=NC(=O)c3ccc(S(=O)(=O)N4CCOCC4)cc3)n(C)c12 -20.8%, COc1cccc2c1Oc1ncccc1N(C(=O)CCC(=O)NCc1ccc(OC(C)C)cc1)C2 -8.56%
